Reference: article PMC9911399, “Two distinct binding modes provide the RNA-binding protein RbFox with extraordinary sequence specificity”
Numbering of substitutions follows the chain as printed; changes in the protein carry UniProt numbers. Some of the results follow.

T1: RBFOX1 RRM RbFoxmut (Fox-RRM*) (Homo sapiens, UniProt Q9NWB1 109-208, R118D;E147R;N151S;E152T)
T1 sequence: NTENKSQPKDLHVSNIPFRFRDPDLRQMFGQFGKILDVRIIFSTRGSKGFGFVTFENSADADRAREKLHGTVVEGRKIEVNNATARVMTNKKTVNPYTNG

B1: CUUAUGU (DNA:RNA)
RNA: GGGAGACCGGAAUUCAGAUUGUCCCUUAUGUUUAAAUCCCGUCGUAGCCACCA
DNA 1: CAATCTGAATTCCGGTCTCCC
DNA 2: TGGTGGCTACGACGGGATT
B2: AUUGAGG (DNA:RNA)
RNA: B1 RNA with C25A, A28G, U29A, U31G
DNA 1: CAATCTGAATTCCGGTCTCCC
DNA 2: TGGTGGCTACGACGGGATT
B3: UGAGAAG (DNA:RNA)
RNA: GGGAGACCGGAAUUCAGAUUGUCCUGAGAAGUUAAAUCCCGUCGUAGCCACCA
DNA 1: CAATCTGAATTCCGGTCTCCC
DNA 2: TGGTGGCTACGACGGGATT
B4: AGAUGAG (DNA:RNA)
RNA: B3 RNA with U25A, G28U, A29G
DNA 1: CAATCTGAATTCCGGTCTCCC
DNA 2: TGGTGGCTACGACGGGATT
B5: GCUGACG (DNA:RNA)
RNA: B3 RNA with U25G, G26C, A27U, A30C
DNA 1: CAATCTGAATTCCGGTCTCCC
DNA 2: TGGTGGCTACGACGGGATT
B6: GAUAUUC (DNA:RNA)
RNA: B1 RNA with C25G, U26A, G30U, U31C
DNA 1: CAATCTGAATTCCGGTCTCCC
DNA 2: TGGTGGCTACGACGGGATT
B7: CCAUGAA (DNA:RNA)
RNA: B3 RNA with U25C, G26C, G28U, A29G, G31A
DNA 1: CAATCTGAATTCCGGTCTCCC
DNA 2: TGGTGGCTACGACGGGATT
B8: GAGGAGA (DNA:RNA)
RNA: B3 RNA with U25G, G26A, A27G, A30G, G31A
DNA 1: CAATCTGAATTCCGGTCTCCC
DNA 2: TGGTGGCTACGACGGGATT
B9: GGUCGAA (DNA:RNA)
RNA: B3 RNA with U25G, A27U, G28C, A29G, G31A
DNA 1: CAATCTGAATTCCGGTCTCCC
DNA 2: TGGTGGCTACGACGGGATT
B10: GAGGCUA (DNA:RNA)
RNA: B3 RNA with U25G, G26A, A27G, A29C, A30U, G31A
DNA 1: CAATCTGAATTCCGGTCTCCC
DNA 2: TGGTGGCTACGACGGGATT
B11: GCGAGCA (DNA:RNA)
RNA: B1 RNA with C25G, U26C, U27G, U29G, G30C, U31A
DNA 1: CAATCTGAATTCCGGTCTCCC
DNA 2: TGGTGGCTACGACGGGATT
B12: AGCAUAC (DNA:RNA)
RNA: B1 RNA with C25A, U26G, U27C, G30A, U31C
DNA 1: CAATCTGAATTCCGGTCTCCC
DNA 2: TGGTGGCTACGACGGGATT
B13: GCGUCGA (DNA:RNA)
RNA: B1 RNA with C25G, U26C, U27G, A28U, U29C, U31A
DNA 1: CAATCTGAATTCCGGTCTCCC
DNA 2: TGGTGGCTACGACGGGATT
B14: CGCACUU (DNA:RNA)
RNA: B1 RNA with U26G, U27C, U29C, G30U
DNA 1: CAATCTGAATTCCGGTCTCCC
DNA 2: TGGTGGCTACGACGGGATT
B15: GUAAUCG (DNA:RNA)
RNA: B1 RNA with C25G, U27A, G30C, U31G
DNA 1: CAATCTGAATTCCGGTCTCCC
DNA 2: TGGTGGCTACGACGGGATT
B16: GACUUUC (DNA:RNA)
RNA: B1 RNA with C25G, U26A, U27C, A28U, G30U, U31C
DNA 1: CAATCTGAATTCCGGTCTCCC
DNA 2: TGGTGGCTACGACGGGATT
B17: CGACAGU (DNA:RNA)
RNA: B1 RNA with U26G, U27A, A28C, U29A
DNA 1: CAATCTGAATTCCGGTCTCCC
DNA 2: TGGTGGCTACGACGGGATT
B18: GCGAGUA (DNA:RNA)
RNA: B1 RNA with C25G, U26C, U27G, U29G, G30U, U31A
DNA 1: CAATCTGAATTCCGGTCTCCC
DNA 2: TGGTGGCTACGACGGGATT
B19: CUAUCGC (DNA:RNA)
RNA: B1 RNA with U27A, A28U, U29C, U31C
DNA 1: CAATCTGAATTCCGGTCTCCC
DNA 2: TGGTGGCTACGACGGGATT
B20: GAGCAGU (DNA:RNA)
RNA: B1 RNA with C25G, U26A, U27G, A28C, U29A
DNA 1: CAATCTGAATTCCGGTCTCCC
DNA 2: TGGTGGCTACGACGGGATT

What follows are binders tested against T1, RBFOX1 RRM RbFoxmut (Fox-RRM*) (assay: EMSA; HiTS-Eq, 1 nM pool, 10 min; buffer printed only for the single-RNA assays: 10 mM Tris pH 7.5, 150 mM NaCl, 3.4 mM EDTA, 0.001% NP-40, 30 C). Details: tags: His6 N-terminal (pET28a); label: 5' 32P.
Procedure, shortened: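 Purified RbFox RRM (wild type or mutant) was equilibrated for 10 min in 50 µL with 1 nM of a 5′-radiolabelled pool of RNA with 7 randomized nucleotides, its flanks annealed to DNA oligonucleotides, across increasing protein concentrations. Free RNA was separated by 8% native PAGE, excised, reverse-transcribed, PCR-barcoded and sequenced on an Illumina HiSeq 2500. Relative association constants came from read-count changes of each variant against the control reaction, normalised to the cognate motif.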
In the case of B1, the binding signal is reported as 0.158 KA relative to UGCAUGU.
B2 was tested, and the binding signal was 0.0811 KA relative to UGCAUGU.
With B3 the binding signal was 0.096 KA relative to UGCAUGU.
In the case of B4, the binding signal is reported as 0.134 KA relative to UGCAUGU.
With B5 the binding signal was 0.0868 KA relative to UGCAUGU.
With B6 the binding signal was 0.0777 KA relative to UGCAUGU.
For B7, the binding signal was 0.152 KA relative to UGCAUGU.
With B8 the binding signal was 0.0599 KA relative to UGCAUGU.
In the case of B9, the binding signal is reported as 0.108 KA relative to UGCAUGU.
B10 was tested, and the binding signal was 0.1 KA relative to UGCAUGU.
With B11 the binding signal was 0.148 KA relative to UGCAUGU.
B12 was tested, and the binding signal was 0.109 KA relative to UGCAUGU.
B13 was tested, and the binding signal was 0.104 KA relative to UGCAUGU.
In the case of B14, the binding signal is reported as 0.0892 KA relative to UGCAUGU.
In the case of B15, the binding signal is reported as 0.0982 KA relative to UGCAUGU.
With B16 the binding signal was 0.0357 KA relative to UGCAUGU.
With B17 the binding signal was 0.06 KA relative to UGCAUGU.
In the case of B18, the binding signal is reported as 0.153 KA relative to UGCAUGU.
In the case of B19, the binding signal is reported as 0.0843 KA relative to UGCAUGU.
In the case of B20, the binding signal is reported as 0.0808 KA relative to UGCAUGU.
